Source: patent US20250136721A1

B1: mAb-VL '735 (bispecific antibody, human IgG1, kappa)
heavy: QVQLVQSGAEVKKPGSSVKVSCKASGFYIKDTYMHWVRQAPGQGLEWMGTIDPANGNTKYVPKFQGRVTITADESTSTAYMELSSLRSEDTAVYYCARSIYDDYHVDDYYAMDYWGQGTLVTVSS[no letters for human IgG1 constant region]GSTVAAPSGSTVAAPSGSDIQMTQSPSSLSASVGDRVTITCRASRPISDWLHWYQQKPGKAPKLLIAWASSLQGGVPSRFSGSGSGTDFTLTISSLQPEDFATYYCQQEGWGPPTFGQGTKVEIKR
light: DIVMTQSPLSLPVTPGEPASISCRSSQNIVHINGNTYLEWYLQKPGQSPRLLIYKISDRFSGVPDRFSGSGSGTDFTLKISRVEADDVGIYYCFQGSHVPWTFGQGTKLEIKRTVAAPSVFIFPPSDEQLKSGTASVVCLLNNFYPREAKVQWKVDNALQSGNSQESVTEQDSKDSTYSLSSTLTLSKADYEKHKVYACEVTHQGLSSPVTKSFNRGEC
B2: mAb-VL 15014 (bispecific antibody, human IgG1, kappa)
heavy: QVTLRESGPALVKPTQTLTLTCTFSGFSLSTSGMGVSWIRQPPGKGLEWLAHIYWDDDKRYNPSLKSRLTISKDTSRNQVVLTMTNMDPVDTATYYCARRETVFYWYFDVWGRGTLVTVSS[no letters for human IgG1 constant region]GSTVAAPSTDIQMTQSPSSLSASVGDRVTITCRASRPISDWLHWYQQKPGKAPKLLIAWASSLQGGVPSRFSGSGSGTDFTLTISSLQPEDFATYYCQQEGWGPPTFGQGTKVEIKRAAA
light: DIVLTQSPSSLSASVGDRVTITCKASQSVDYDGDSYMNWYQQKPGKAPKLLIYAASNLESGIPSRFSGSGSGTDFTFTISSLQPEDIATYYCQQSNEDPPTFGQGTKVEIKRTVAAPSVFIFPPSDEQLKSGTASVVCLLNNFYPREAKVQWKVDNALQSGNSQESVTEQDSKDSTYSLSSTLTLSKADYEKHKVYACEVTHQGLSSPVTKSFNRGEC
B3: mAb-VL 15019 (bispecific antibody, human IgG1, kappa)
heavy: QVTLRESGPALVKPTQTLTLTCTFSGFSLSTSGMGVSWIRQPPGKGLEWLAHIYWDDDKRYNPSLKSRLTISKDTSRNQVVLTMTNMDPVDTATYYCARRETVFYWYFDVWGRGTLVTVSS[no letters for human IgG1 constant region]GSTVAAPSTDIQMTQSPSSLSASVGDRVTITCRASRPISDWLHWYQQKPGKAPKLLIAWASSLQGGVPSRFSGSGSGTDFTLTISSLQPEDFATYYCQQEGWGPPTFGQGTKVEIKRT
light: B2 light
B4: mAb-VL 15020 (bispecific antibody, human IgG1, kappa)
heavy: QVTLRESGPALVKPTQTLTLTCTFSGFSLSTSGMGVSWIRQPPGKGLEWLAHIYWDDDKRYNPSLKSRLTISKDTSRNQVVLTMTNMDPVDTATYYCARRETVFYWYFDVWGRGTLVTVSS[no letters for human IgG1 constant region]GSTVAAPSTDIQMTQSPSSLSASVGDRVTITCRASRPISDWLHWYQQKPGKAPKLLIAWASSLQGGVPSRFSGSGSGTDFTLTISSLQPEDFATYYCQQEGWGPPTFGQGTKVEIKRTV
light: B2 light
B5: mAb-VL 15021 (bispecific antibody, human IgG1, kappa)
heavy: WIRQPPGKGLEWLAHIYWDDDKRYNPSLKSRLTISKDTSRNQVVLTMTNMDPVDTATYYCARRETVFYWYFDVWGRGTLVTVSS[no letters for human IgG1 constant region]GSTVAAPSTDIQMTQSPSSLSASVGDRVTITCRASRPISDWLHWYQQKPGKAPKLLIAWASSLQGGVPSRFSGSGSGTDFTLTISSLQPEDFATYYCQQEGWGPPTFGQGTKVEIK
light: B2 light
B6: DOM1h-574-208 (protein)
VH: EVQLLESGGGLVQPGGSLRLSCAASGFTFDKYSMGWVRQAPGKGLEWVSQISDTADRTYYAH[no letters for about 20 residues]MNSLRAEDTAVYYCAIYTGRWVPFEYWGQGTLVTVSS
B7: DOM1h-574-208 - VL fusion (protein)
chain: EVQLLESGGGLVQPGGSLRLSCAASGFTFDKYSMGWVRQAPGKGLEWVSQISDTADRTYYAH[no letters for about 20 residues]MNSLRAEDTAVYYCAIYTGRWVPFEYWGQGTLVTVSSASTDIQMTQSPSSLSASVGDRVTITCRASRPIGTTLSWYQQKPGKAPKLLILWNSRLQSGVPSRFSGSGSGTDFTLTISSLQPEDFATYYCAQAGTHPTTFGQGTKVEIKR

How the values were obtained:
[1] = target: pre-existing anti-V kappa (VL) ADA in human serum; experiment: '735 ADA confirmation assay (MSD): 10 ug/mL test material against labelled '735, mean of 7 donor sera
[2] = target: pre-existing anti-VH ADA in human serum; experiment: ADA confirmation assay (MSD): 10 ug/mL test material against labelled DOM1H-131-206, mean of 10 sera
[3] = target: pre-existing anti-VH ADA in human serum; experiment: ADA confirmation assay (MSD): 10 ug/mL test material against labelled DOM1H-131-206; share of 10 ADA-positive sera with binding

Row | Binder | % inhibition in confirmation assay [1] [%] | Mean % inhibition of signal in confirmation assay [2] [%] | % subjects with ADA binding (10 subjects) (% of subjects) [3]
1 | B1 | 74.9 | – | –
2 | B2 | -4.4 | – | –
3 | B3 | 12.9 | – | –
4 | B4 | 8.53 | – | –
5 | B5 | 20.1 | – | –
6 | B6 | – | 94.1 | 100
7 | B7 | – | 4.43 | –
